Article PMC7071059, “Targeting Receptor Tyrosine Kinase VEGFR-2 in Hepatocellular Cancer: Rational Design, Synthesis and Biological Evaluation of 1,2-Disubstituted Benzimidazoles” (Molecules, 2020)

Target: VEGFR-2 in the HepG2 cell line (Homo sapiens, UniProt P35968)
Test: In vitro cell-based VEGFR-2 inhibition, ELISA kit
Conditions: HepG2 cells, 48 h; for % Inhibition of VEGFR-2 in HepG2 Cell Line: compound at its previously determined IC50 / 1/10 of IC50, relative to negative control; for Amount of VEGFR-2: mean ± S.E. of two experiments, DMSO control 185.20 ± 21.85

Compound	% Inhibition of VEGFR-2 in HepG2 Cell Line [%]	Amount of VEGFR-2 [ng/mL]
CC(C)c1nc2ccccc2n1CC(=O)c1ccc(C#N)cc1 [Compound 6, 4-(2-(2-Isopropyl-1H-benzo[d]imidazol-1-yl)acetyl)benzonitrile]	80	37.11 ± 3.00
CC(C)c1nc2ccccc2n1CC(=O)N/N=C/c1ccccc1Cl [Compound 13a, (E)-N′-(2-Chlorobenzylidene)-2-(2-isopropyl-1H-benzo[d]imidazol-1-yl)acetohydrazide]	5.5	175.00 ± 15.65
CC(C)c1nc2ccccc2n1CC(=O)N/N=C/c1cccc(O)c1 [Compound 13b, (E)-N′-(3-Hydroxybenzylidene)-2-(2-isopropyl-1H-benzo[d]imidazol-1-yl)acetohydrazide]	4	177.11 ± 20.67
CC(C)c1nc2ccccc2n1CC(=O)N/N=C/c1ccc(O)cc1 [Compound 13c, (E)-N′-(4-Hydroxybenzylidene)-2-(2-isopropyl-1H-benzo[d]imidazol-1-yl)acetohydrazide]	8	170.85 ± 20.38
COc1ccc(/C=N/NC(=O)Cn2c(C(C)C)nc3ccccc32)cc1 [Compound 13d, (E)-2-(2-Isopropyl-1H-benzo[d]imidazol-1-yl)-N′-(4-methoxybenzylidene)acetohydrazide]	78	39.90 ± 4.60
CC(C)c1nc2ccccc2n1CC(=O)N/N=C/c1ccc(N(C)C)cc1 [Compound 13e, (E)-N′-(4-(Dimethylamino)benzylidene)-2-(2-isopropyl-1H-benzo[d]imidazol-1-yl)acetohydrazide]	10	165.71 ± 18.20
COc1ccc(OC)c(/C=N/NC(=O)Cn2c(C(C)C)nc3ccccc32)c1 [Compound 13f]	78	41.10 ± 3.88
COc1cc(/C=N/NC(=O)Cn2c(C(C)C)nc3ccccc32)ccc1O [Compound 13g, (E)-N′-(4-Hydroxy-3-methoxybenzylidene)-2-(2-isopropyl-1H-benzo[d]imidazol-1-yl)acetohydrazide]	64	66.00 ± 8.35
Cc1ccc(/C=N/NC(=O)Cn2c(C(C)C)nc3ccccc32)o1 [Compound 13h, (E)-2-(2-Isopropyl-1H-benzo[d]imidazol-1-yl)-N′-((5-methylfuran-2-yl)methylene)acetohydrazide]	6	173.80 ± 15.76
C/C(=N\NC(=O)Cn1c(C(C)C)nc2ccccc21)c1ccccc1 [Compound 14a, (E)-2-(2-Isopropyl-1H-benzo[d]imidazol-1-yl)-N′-(1-phenylethylidene)acetohydrazide]	51	90.00 ± 8.65
C/C(=N\NC(=O)Cn1c(C(C)C)nc2ccccc21)c1ccccc1C [Compound 14b, (E)-2-(2-Isopropyl-1H-benzo[d]imidazol-1-yl)-N′-(1-(o-tolyl)ethylidene)acetohydrazide]	61	72.60 ± 9.14
C/C(=N\NC(=O)Cn1c(C(C)C)nc2ccccc21)c1ccc(Br)cc1 [Compound 14c, (E)-N′-(1-(4-Bromophenyl)ethylidene)-2-(2-isopropyl-1H-benzo[d]imidazol-1-yl)acetohydrazide]	3	180.50 ± 21.00
C/C(=N\NC(=O)Cn1c(C(C)C)nc2ccccc21)c1ccc(Br)c([N+](=O)[O-])c1 [Compound 14d, (E)-N′-(1-(4-Bromo-3-nitrophenyl)ethylidene)-2-(2-isopropyl-1H-benzo[d]imidazol-1-yl)acetohydrazide]	9	169.12 ± 16.80
CC(C)c1nc2ccccc2n1CC(=O)N/N=C/c1cccc(OCc2ccccc2)c1 [Compound 17a, (E)-N′-(3-(Benzyloxy)benzylidene)-2-(2-isopropyl-1H-benzo[d]imidazol-1-yl)acetohydrazide]	82	34.00 ± 4.28
Cc1ccc(-c2nc3ccccc3n2CC(=O)N/N=C/c2cccc(OCc3ccccc3)c2)o1 [Compound 17b, (E)-N′-(3-(Benzyloxy)benzylidene)-2-(2-(5-methylfuran-2-yl)-1H-benzo[d]imidazol-1-yl)acetohydrazide]	78	40.12 ± 5.70
CC(C)c1nc2ccccc2n1CC(=O)N/N=C/c1ccc(OCc2ccccc2)cc1 [Compound 17c, (E)-N′-(4-(Benzyloxy)benzylidene)-2-(2-isopropyl-1H-benzo[d]imidazol-1-yl)acetohydrazide]	64	66.13 ± 9.11
Cc1ccc(-c2nc3ccccc3n2CC(=O)N/N=C/c2ccc(OCc3ccccc3)cc2)o1 [Compound 17d, (E)-N′-(4-(Benzyloxy)benzylidene)-2-(2-(5-methylfuran-2-yl)-1H-benzo[d]imidazol-1-yl)acetohydrazide]	56	81.70 ± 9.16
COc1cc(/C=N/NC(=O)Cn2c(C(C)C)nc3ccccc32)ccc1OCc1ccccc1 [Compound 17e, (E)-N′-(4-(Benzyloxy)-3-methoxybenzylidene)-2-(2-isopropyl-1H-benzo[d]imidazol-1-yl)acetohydrazide]	67	61.86 ± 7.85
COc1cc(/C=N/NC(=O)Cn2c(-c3ccc(C)o3)nc3ccccc32)ccc1OCc1ccccc1 [Compound 17f, (E)-N′-(4-(Benzyloxy)-3-methoxybenzylidene)-2-(2-(5-methylfuran-2-yl)-1H-benzo[d]imidazol-1-yl)acetohydrazide]	14	158.60 ± 19.35
COC(=O)COc1ccc(/C=N/NC(=O)Cn2c(C(C)C)nc3ccccc32)cc1OC [Compound 19a, Methyl-(E)-2-(4-((2-(2-(2-isopropyl-1H-benzo[d]imidazol-1-yl)acetyl)hydrazono)methyl)-2-methoxyphenoxy)acetate]	6.5	173.16 ± 19.66
COC(=O)COc1ccc(/C=N/NC(=O)Cn2c(-c3ccc(C)o3)nc3ccccc32)cc1OC [Compound 19b, Methyl-(E)-2-(2-methoxy-4-((2-(2-(2-(5-methylfuran-2-yl)-1H-benzo[d]imidazol-1-yl)acetyl)hydrazono)methyl)phenoxy)acetate]	9	168.80 ± 16.21
CCOC(=O)COc1ccc(/C=N/NC(=O)Cn2c(C(C)C)nc3ccccc32)cc1OC [Compound 19c, Ethyl-(E)-2-(4-((2-(2-(2-isopropyl-1H-benzo[d]imidazol-1-yl)acetyl)hydrazono)methyl)-2-methoxyphenoxy)acetate]	4	177.10 ± 18.80
COc1cc(C=O)ccc1OCCOc1ccc(/C=N/NC(=O)Cn2c(C(C)C)nc3ccccc32)cc1OC [Compound 22a, (E)-N′-(4-(2-(4-Formyl-2-methoxyphenoxy)ethoxy)-3-methoxybenzylidene)-2-(2-isopropyl-1H-benzo[d]imidazol-1-yl)acetohydrazide]	1	183.00 ± 19.00
COc1cc(C=O)ccc1OCCOc1ccc(/C=N/NC(=O)Cn2c(-c3ccc(C)o3)nc3ccccc32)cc1OC [Compound 22b, (E)-N′-(4-(2-(4-Formyl-2-methoxyphenoxy)ethoxy)-3-methoxybenzylidene)-2-(2-(5-methylfuran-2-yl)-1H-benzo[d]imidazol-1-yl)acetohydrazide]	13	160.85 ± 15.70
Cc1ccc(S(=O)(=O)NC(=O)NNC(=O)Cn2c(C(C)C)nc3ccccc32)cc1 [Compound 24a, 2-(2-(2-Isopropyl-1H-benzo[d]imidazol-1-yl)acetyl)-N-tosylhydrazine-1-carboxamide]	10	166.00 ± 19.50
COc1ccc(NC(=S)NNC(=O)Cn2c(C(C)C)nc3ccccc32)cc1 [Compound 24b, 2-(2-(2-Isopropyl-1H-benzo[d]imidazol-1-yl)acetyl)-N-(4-methoxyphenyl)hydrazine-1-carbothioamide]	–	68.81 ± 8.14
COc1ccc(NC(=S)NNC(=O)Cn2c(-c3ccc(C)o3)nc3ccccc32)cc1 [Compound 24c, N-(4-Methoxyphenyl)-2-(2-(2-(5-methylfuran-2-yl)-1H-benzo[d]imidazol-1-yl)acetyl)hydrazine-1-carbothioamide]	–	74.18 ± 9.70
